Assay results reported in PubChem BioAssay AID1468 (National Center for Advancing Translational Sciences (NCATS), 2008).
Among all 280,000 compounds or so, about 1,100 (0.39%) were called active. Inconclusive means that the source gave no clear call. Such entries were picked first, then a sample of the others. Calls come from the whole dose curve; as a rule, active = well fitted inhibition curve with a large enough effect; inconclusive = small, poorly fitted or top-dose-only effect, or effect the other way; inactive = flat fitted curve, though single readings scatter. Potencies of inconclusive entries are left out as doubtful fits.

target: Microtubule-associated protein tau (Homo sapiens) (UniProt P10636); assay: qHTS for Inhibitors of Tau Fibril Formation, Fluorescence Polarization; conditions: K18 P301L tau heparin fibrillization, Alexa594 FP, 6 h; series mostly up to 57.7 µM; activity, negative = inhibition: at the top concentration; note: nearly all actives have a fitted effect of over 55% in size
Sequence of UniProt P10636 (P10636 whole entry, looked up): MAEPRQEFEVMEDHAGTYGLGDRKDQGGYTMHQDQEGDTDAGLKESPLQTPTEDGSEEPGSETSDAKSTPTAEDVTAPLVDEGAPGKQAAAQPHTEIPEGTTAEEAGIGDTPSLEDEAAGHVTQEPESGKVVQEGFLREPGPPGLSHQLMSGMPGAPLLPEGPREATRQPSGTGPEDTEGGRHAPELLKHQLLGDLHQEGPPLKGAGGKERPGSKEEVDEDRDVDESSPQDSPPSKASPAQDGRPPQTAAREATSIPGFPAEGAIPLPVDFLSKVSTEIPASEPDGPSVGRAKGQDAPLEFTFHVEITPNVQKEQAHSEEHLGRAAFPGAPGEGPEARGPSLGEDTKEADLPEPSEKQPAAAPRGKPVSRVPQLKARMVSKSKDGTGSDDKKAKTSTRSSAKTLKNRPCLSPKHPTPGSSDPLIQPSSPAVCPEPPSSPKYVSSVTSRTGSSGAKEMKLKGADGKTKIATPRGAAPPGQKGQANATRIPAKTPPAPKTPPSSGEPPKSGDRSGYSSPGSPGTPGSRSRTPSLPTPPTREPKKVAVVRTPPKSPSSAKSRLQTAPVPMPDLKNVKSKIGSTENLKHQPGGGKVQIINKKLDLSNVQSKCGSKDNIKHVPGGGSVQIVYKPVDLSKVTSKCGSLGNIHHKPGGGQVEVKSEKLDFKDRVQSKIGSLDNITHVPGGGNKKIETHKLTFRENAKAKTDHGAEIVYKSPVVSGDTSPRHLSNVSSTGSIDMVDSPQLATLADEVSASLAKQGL
Summary of the method: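 K18 P301L tau (15 uM unlabeled/0.24 uM Alexa 594-labeled, final) + compound + heparin 20 uM final; 100 mM NaOAc pH 7; 6 hr 37 C; ThT 30 uM final added, 1 hr RT; FP ex 555/em 632 nm.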
% is set by controls: 0 for no effect and ±100 for the full control effect; potency is the fitted concentration of half-maximal effect; tags give direction and shape of the fitted curve.

Row | Compound | Potency | activity, negative = inhibition
1 | CC1(C)Oc2ccc3ccc(=O)oc3c2CC1O (stereo not given) | inconclusive [inhibitor, single point] | 
2 | c1ccc(CCNc2ncnc3ccccc23)cc1 |  | inactive: -3.98%
3 | CCOC(=O)c1cc2c(nc1NC(=S)Nc1ccccc1)CC(C)(C)OC2 |  | inactive: 5.66%
4 | CCOC(=O)c1[nH]c(C)c(/C=N/O)c1C |  | inactive: 6.25%
5 | Oc1ccc(-c2csc(NCc3ccco3)n2)cc1 | inconclusive [activator, single point] | 
6 | O=S(=O)(c1ccc(Cl)cc1)c1nc(-c2ccco2)oc1SCc1ccc(F)cc1 | inconclusive [inhibitor, full curve, poor fit] | 
7 | Cc1nn(CCc2n[nH]c(=S)n2C2CCCCC2)c(C)c1Br |  | inactive: -3.46%
8 | COc1ccc(CCN2C(=O)c3[nH]nc(-c4ccccc4O)c3C2c2ccc(OC)cc2)cc1 (stereo not given) | inconclusive [inhibitor, single point] | 
9 | O=C(Nc1ccc(Oc2ccccc2)cc1)C1CCN(S(=O)(=O)c2ccc(Cl)cc2)CC1 | inconclusive [inhibitor, partial curve] | 
10 | Cc1ccc(C(=O)N/N=C\C=C\c2ccc(Br)cc2)cn1 |  | inactive: -4.65%
11 | N#CC1=C2SCN(c3ccccc3)CN2C(=O)CC1c1c(Cl)cccc1Cl (stereo not given) | active: 25.1 µM | 
12 | COc1ccc(N2CSC3=C(C#N)C(c4cc(OC)c(OC)cc4OC)CC(=O)N3C2)c(OC)c1 (stereo not given) | active: 12.6 µM | 
13 | O=C(CSc1nccc(-c2cccs2)n1)Nc1cccc(Cl)c1 | inconclusive [inhibitor, partial curve] | 
14 | Cc1ccc(Cn2nc(C)cc2C(=O)Nc2ccc(Cl)cc2)cc1 | inconclusive [inhibitor, partial curve] | 
15 | O=C(Nc1cccc(S(=O)(=O)N2CCCCC2)c1)c1ccc2ncsc2c1 | inconclusive [inhibitor, partial curve] | 
16 | CNCc1ccccc1Sc1cc(O)ccc1O | active: 31.6 µM | 
17 | CC(CN(C)C)C(C)(O)Cc1ccc(Cl)cc1 (stereo not given) | inconclusive [inhibitor, single point] | 
18 | Cc1ccc(C2=Nc3ccccc3N(CC(=O)Nc3cccc(F)c3)C(=O)C2)cc1C | inconclusive [inhibitor, partial curve] | 
19 | O=C(Nc1ccccc1)Nc1sccc1-c1nc2ccccc2s1 | inconclusive [inhibitor, single point] | 
20 | Cc1nn(CC(=O)NNC(=S)Nc2ccccc2)c(C)c1[N+](=O)[O-] |  | inactive: 0.029%
21 | O=C(NNC(=S)NC1CCCCC1)c1sc2ccccc2c1Cl | inconclusive [activator, partial curve, poor fit] | 
22 | Cc1cccc2cc(/C=C/C(=O)c3ccco3)c(Cl)nc12 | inconclusive [activator, partial curve] | 
23 | COc1ccccc1C(=O)Oc1cc(N)n(S(=O)(=O)c2ccccc2)n1 | inconclusive [inhibitor, single point] | 

Row | Compound | Potency | activity, negative = inhibition
24 | CCCCCC1CCC(c2ccc(/C(N)=N/O)cc2)CC1 (stereo not given) |  | inactive: 13.7%
25 | S=c1nc(SCc2ccccc2)[nH]c2ccccc12 | inconclusive [inhibitor, single point] | 
26 | CC(=O)Nc1ccccc1O |  | inactive: 4.18%
27 | NN1C(=O)/C(=C\c2ccco2)SC1=S | inconclusive [inhibitor, partial curve, poor fit] | 
28 | Cc1ccc2nc(N(Cc3cccnc3)C(=O)C3COc4ccccc4O3)sc2c1 (stereo not given) |  | inactive: -2.89%
29 | COc1ccc(C(C(=O)NCC2CCCO2)N(C(=O)CNC(=O)c2cccs2)c2ccc(C)cc2)cc1OC (stereo not given) |  | inactive: 5.07%
30 | Cn1nc(C(=O)Nc2ccc(S(=O)(=O)NCc3ccco3)cc2)c2ccccc2c1=O | inconclusive [inhibitor, partial curve, poor fit] | 
31 | O=C1CCCC(O)=C1C=NCCc1ccccc1 | inconclusive [inhibitor, single point] | 
32 | COC(=O)c1cn(NC(=O)c2ccc(OC)c(OC)c2)c(=O)c2ccccc12 | inconclusive [inhibitor, single point] | 
33 | Brc1ccc2c(c1)c1cc(Br)ccc1n2CC1CO1 (stereo not given) | inconclusive [inhibitor, partial curve, poor fit] | 
34 | COc1cc2c(cc1NC(=O)COC(=O)CNC(=O)c1ccccc1)oc1ccccc12 | inconclusive [inhibitor, partial curve] | 
35 | CCC1OC23CCCCC2C(C#N)(C(=N)O3)C1(C#N)C#N (stereo not given) | inconclusive [inhibitor, single point] | 
36 | Cc1ccc(S(=O)(=O)NNC(=O)Nc2ccc(Cl)c(Cl)c2)cc1 | inconclusive [inhibitor, partial curve] | 
37 | CCOC(=O)CN1C(=O)S/C(=C/C=C/c2ccc(N(C)C)cc2)C1=O | inconclusive [activator, single point] | 
38 | COc1ccccc1N1CCN(C(=S)Nc2ccc3nc(N4CCOCC4)cc(C)c3c2)CC1 | inconclusive [activator, partial curve, poor fit] | 
39 | CSc1nc2sc3c(c2c(=O)n1C1CCCCC1)CCN(C)C3 |  | inactive: 9.77%
40 | CC(C)CC(=O)Nc1nnc(SCC(=O)Nc2ccc(F)cc2)s1 | inconclusive [inhibitor, single point] | 
41 | Cc1cccc(N2C(S)=C(C#N)C(=O)NC2c2cccs2)c1 (stereo not given) | inconclusive [inhibitor, partial curve] | 
42 | COC(=O)c1cn(-c2ccccc2)nc1-c1ccccc1 | inconclusive [inhibitor, single point] | 
43 | CCCc1cc(=O)[nH]c(SCC(=O)CSc2nc(CCC)cc(=O)[nH]2)n1 | inconclusive [inhibitor, partial curve] | 
44 | Cc1ccc(Nc2nc(C(=O)NCc3ccco3)cs2)cc1 | inconclusive [activator, partial curve] | 
45 | CC1=NN(c2cccc(C(=O)O)c2)C(=O)/C1=C\C=C\c1ccco1 | inconclusive [inhibitor, single point] | 
